{"source": "paper PMC3437627", "about": "(Bioorganic & medicinal chemistry letters, 2008)", "key": {"[1]": {"tested_on": "nAChRs mediating nicotine-evoked [3H]DA release", "assay_type": "cell-based, rat"}, "[2]": {"tested_on": "nAChRs mediating nicotine-evoked [3H]DA release", "conditions": "cited from earlier work"}}}
{"smiles": "OCCCc1ccc[n+](CCCCCc2cc(CCCCC[n+]3cccc(CCCO)c3)c(CCCCC[n+]3cccc(CCCO)c3)cc2CCCCC[n+]2cccc(CCCO)c2)c1.[Br-].[Br-].[Br-].[Br-]", "note": "[Compound 11j]", "values": [{"measurement": "inhibition of S(−)-nicotine evoked [3H]DA overflow", "setting": "[1]; rat striatal slices, nicotine 10 µM, Fig 2", "result": "concentration-dependent manner"}, {"measurement": "IC50", "setting": "[1]; read-out: IC50, inhibition of nicotine-evoked [3H]DA release, full concentration response 1 nM to 10 µM, 10 µM nicotine", "result": 3, "unit": "nM"}]}
{"smiles": "CCCCCCCC[n+]1cccc(C2CCCN2C)c1.[I-]", "note": "(stereo not drawn) [NONI, N-n-octanylnicotinium iodide]", "values": [{"measurement": "potency relative to NDDNI (fold less potent)", "setting": "[2]; nicotine-evoked DA overflow, ref 16b", "result": 70, "unit": "fold"}]}
{"smiles": "CNC1(C)C2CCC(C2)C1(C)C", "note": "(stereo not drawn) [mecamylamine]", "values": [{"measurement": "inhibition of S(−)-nicotine-evoked [3H]DA fractional release", "setting": "[1]; rat striatal slices, 100 nM NMPi, MEC positive control, two-way ANOVA", "result": "Significant inhibition"}, {"measurement": "inhibition of nicotine-evoked DA release", "setting": "[2]", "result": "completely inhibited"}]}
{"smiles": "CCCCCCCCCCCC[n+]1cccc(C2CCCN2C)c1.[I-]", "note": "(stereo not drawn) [NDDNI, N-n-dodecylnicotinium iodide]", "values": [{"measurement": "selectivity (DA overflow vs [3H]nicotine binding to the high affinity nAChR)", "setting": "[2]; ref 16b", "result": 15, "unit": "fold"}]}
